From publication PMC12820563 come the findings set out here.

The other results are listed elsewhere or left out. The list includes weakly bound sequences.

The test has as its target T1, MBP-FoxP3dN (UniProt Q99JB6).
T1 sequence: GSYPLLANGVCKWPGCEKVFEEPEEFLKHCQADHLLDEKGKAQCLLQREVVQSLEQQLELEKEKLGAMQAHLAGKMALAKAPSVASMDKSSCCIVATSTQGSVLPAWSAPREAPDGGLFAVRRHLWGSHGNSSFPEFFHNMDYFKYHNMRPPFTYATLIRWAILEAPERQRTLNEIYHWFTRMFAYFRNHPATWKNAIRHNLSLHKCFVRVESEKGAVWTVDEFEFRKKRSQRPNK
Briefly: PD-seq (MBP pull-down with sequencing). The settings on record: 20 mM Tris-HCl pH 7.5, 100 mM NaCl, 1.5 mM MgCl2, 0.4 uM protein, 0.1 uM dsDNA library, 30 min, room temperature, amylose pull-down; high values mean tight binding; double strand, one strand shown.
On to “GATGATTGTTCTCCCAGCTGATGAATTGTATGGGTCGAGTAAACAAATTTTCCTAATCTTTCTGTTCAAGCGCCATCTAC”, for which the binding signal (RPM ratio (pull-down/input)) stood at 1.19.

As for “GATGATTGTTCTCCCAGCTGATGAATTATCGTCCTCGAGTAAACAAATTTTCCTAATCTTTCTGTTCAAGCGCCATCTAC”, the binding signal (RPM ratio (pull-down/input)) was 0.481.

On to “GATGATTGTTCTCCCAGCTGATGAATTCGCTCTCTCGAGTAAACAAATTTTCCTAATCTTTCTGTTCAAGCGCCATCTAC”, for which the binding signal (RPM ratio (pull-down/input)) came to 0.344.

Turning to “GATGATTGTTCTCCCAGCTGATGAATTGCCAATGTCGAGTAAACAAATTTTCCTAATCTTTCTGTTCAAGCGCCATCTAC”, the binding signal (RPM ratio (pull-down/input)) came out at 0.545.

For “GATGATTGTTCTCCCAGCTGATGAATTTTATAGCTCGAGTAAACAAATTTTCCTAATCTTTCTGTTCAAGCGCCATCTAC”, the binding signal (RPM ratio (pull-down/input)) came to 0.545.

With “GATGATTGTTCTCCCAGCTGATGAATTAAGTTCGTCGAGTAAACAAATTTTCCTAATCTTTCTGTTCAAGCGCCATCTAC”, the binding signal (RPM ratio (pull-down/input)) amounted to 0.524.

Turning to “GATGATTGTTCTCCCAGCTGATGAATTGTAGTCTTCGAGTAAACAAATTTTCCTAATCTTTCTGTTCAAGCGCCATCTAC”, the binding signal (RPM ratio (pull-down/input)) came to 1.11.

Take “GATGATTGTTCTCCCAGCTGATGAATTCTCCTATTCGAGTAAACAAATTTTCCTAATCTTTCTGTTCAAGCGCCATCTAC”: the binding signal (RPM ratio (pull-down/input)) worked out at 0.285.

As to “GATGATTGTTCTCCCAGCTGATGAATTCTAGCTATCGAGTAAACAAATTTTCCTAATCTTTCTGTTCAAGCGCCATCTAC”, the binding signal (RPM ratio (pull-down/input)) came out at 0.717.

Take “GATGATTGTTCTCCCAGCTGATGAATTTGTAAATTCGAGTAAACAAATTTTCCTAATCTTTCTGTTCAAGCGCCATCTAC”: the binding signal (RPM ratio (pull-down/input)) turned out to be 1.23.

With “GATGATTGTTCTCCCAGCTGATGAATTCTTGTCGTCGAGTAAACAAATTTTCCTAATCTTTCTGTTCAAGCGCCATCTAC”, the binding signal (RPM ratio (pull-down/input)) was determined as 0.447.

Turning to “GATGATTGTTCTCCCAGCTGATGAATTGGCAAGGTCGAGTAAACAAATTTTCCTAATCTTTCTGTTCAAGCGCCATCTAC”, the binding signal (RPM ratio (pull-down/input)) was found to be 0.314.

As for “GATGATTGTTCTCCCAGCTGATGAATTTCGGAGCTCGAGTAAACAAATTTTCCTAATCTTTCTGTTCAAGCGCCATCTAC”, the binding signal (RPM ratio (pull-down/input)) is 0.247.

Consider “GATGATTGTTCTCCCAGCTGATGAATTATCCTGCTCGAGTAAACAAATTTTCCTAATCTTTCTGTTCAAGCGCCATCTAC”, for which the binding signal (RPM ratio (pull-down/input)) amounted to 0.234.

On to “GATGATTGTTCTCCCAGCTGATGAATTGGCTGGCTCGAGTAAACAAATTTTCCTAATCTTTCTGTTCAAGCGCCATCTAC”, for which the binding signal (RPM ratio (pull-down/input)) came to 0.35.

As for “GATGATTGTTCTCCCAGCTGATGAATTGTTTTCTTCGAGTAAACAAATTTTCCTAATCTTTCTGTTCAAGCGCCATCTAC”, the binding signal (RPM ratio (pull-down/input)) is 4.15.

As for “GATGATTGTTCTCCCAGCTGATGAATTCGCGATTTCGAGTAAACAAATTTTCCTAATCTTTCTGTTCAAGCGCCATCTAC”, the binding signal (RPM ratio (pull-down/input)) was found to be 0.635.

“GATGATTGTTCTCCCAGCTGATGAATTCGACCACTCGAGTAAACAAATTTTCCTAATCTTTCTGTTCAAGCGCCATCTAC”: the binding signal (RPM ratio (pull-down/input)) is 0.416.

For the sequence “GATGATTGTTCTCCCAGCTGATGAATTGATTACCTCGAGTAAACAAATTTTCCTAATCTTTCTGTTCAAGCGCCATCTAC”, the binding signal (RPM ratio (pull-down/input)) was determined as 1.21.

Turning to “GATGATTGTTCTCCCAGCTGATGAATTACACGTTTCGAGTAAACAAATTTTCCTAATCTTTCTGTTCAAGCGCCATCTAC”, the binding signal (RPM ratio (pull-down/input)) worked out at 0.631.

“GATGATTGTTCTCCCAGCTGATGAATTTCGAGATTCGAGTAAACAAATTTTCCTAATCTTTCTGTTCAAGCGCCATCTAC”: the binding signal (RPM ratio (pull-down/input)) is 0.361.

For “GATGATTGTTCTCCCAGCTGATGAATTAGCTGGATCGAGTAAACAAATTTTCCTAATCTTTCTGTTCAAGCGCCATCTAC”, the binding signal (RPM ratio (pull-down/input)) was found to be 0.259.

As for “GATGATTGTTCTCCCAGCTGATGAATTTGTGCGGTCGAGTAAACAAATTTTCCTAATCTTTCTGTTCAAGCGCCATCTAC”, the binding signal (RPM ratio (pull-down/input)) is 1.8.

“GATGATTGTTCTCCCAGCTGATGAATTAGCTGCCTCGAGTAAACAAATTTTCCTAATCTTTCTGTTCAAGCGCCATCTAC”: the binding signal (RPM ratio (pull-down/input)) worked out at 0.845.

Consider “GATGATTGTTCTCCCAGCTGATGAATTAATTGCCTCGAGTAAACAAATTTTCCTAATCTTTCTGTTCAAGCGCCATCTAC”, for which the binding signal (RPM ratio (pull-down/input)) is 1.83.

Turning to “GATGATTGTTCTCCCAGCTGATGAATTACTAGCATCGAGTAAACAAATTTTCCTAATCTTTCTGTTCAAGCGCCATCTAC”, the binding signal (RPM ratio (pull-down/input)) was 1.06.

As for “GATGATTGTTCTCCCAGCTGATGAATTTCATCTTTCGAGTAAACAAATTTTCCTAATCTTTCTGTTCAAGCGCCATCTAC”, the binding signal (RPM ratio (pull-down/input)) was 0.497.

“GATGATTGTTCTCCCAGCTGATGAATTCCCGGAGTCGAGTAAACAAATTTTCCTAATCTTTCTGTTCAAGCGCCATCTAC”: the binding signal (RPM ratio (pull-down/input)) came out at 0.177.

In the case of “GATGATTGTTCTCCCAGCTGATGAATTGATTTACTCGAGTAAACAAATTTTCCTAATCTTTCTGTTCAAGCGCCATCTAC”, the binding signal (RPM ratio (pull-down/input)) stood at 3.56.

On to “GATGATTGTTCTCCCAGCTGATGAATTACCACCCTCGAGTAAACAAATTTTCCTAATCTTTCTGTTCAAGCGCCATCTAC”, for which the binding signal (RPM ratio (pull-down/input)) was determined as 0.312.

As for “GATGATTGTTCTCCCAGCTGATGAATTCAGTAGCTCGAGTAAACAAATTTTCCTAATCTTTCTGTTCAAGCGCCATCTAC”, the binding signal (RPM ratio (pull-down/input)) came out at 0.763.

For the sequence “GATGATTGTTCTCCCAGCTGATGAATTAAGGATATCGAGTAAACAAATTTTCCTAATCTTTCTGTTCAAGCGCCATCTAC”, the binding signal (RPM ratio (pull-down/input)) was 0.372.
